# Assay results as given in PubChem BioAssay AID1347165 (National Center for Advancing Translational Sciences (NCATS), 2019).
# Out of some 220,000 compounds screened, about 5,700 (2.6%) were called active. Inconclusive means that the source gave no clear call. Such entries were picked first, then a sample of the others. The call rests on the fitted dose curve; in most records, active means well fitted inhibition curve with a large enough effect; inconclusive means small, poorly fitted or top-dose-only effect; inactive means no such curve, though single readings can be large or run the other way. Where the call is inconclusive, the potency comes from a doubtful curve fit.
# Biological target: Lysine-specific demethylase 5B (Homo sapiens) (UniProt Q9UGL1)
# Assay: Primary screen for KDM5B Histone Demethylases FDH-coupled qHTS; further: nearly all actives have a fitted effect of over 70% in size; on activity change, negative = inhibition: 0% is about no effect
# Settings: FDH-coupled NADH fluorescence (FDH is formaldehyde dehydrogenase); activity change, negative = inhibition: at 57.7 µM (top of the series) unless noted
# In short: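 Here, H3K4me3 peptide (12.5 µM in substrate mix) is demethylated by KDM5BΔAP, 200 nM final, after 10 min compound exposure. Formaldehyde product is coupled through FDH (0.25 U/mL in mix) to NADH fluorescence; 30-min ΔRFU feeds dose-response curves.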
# Potency means the concentration at half of the fitted maximal effect; tags describe the fitted curve by direction and shape.
# Sequence of UniProt Q9UGL1 (Q9UGL1 whole entry, looked up): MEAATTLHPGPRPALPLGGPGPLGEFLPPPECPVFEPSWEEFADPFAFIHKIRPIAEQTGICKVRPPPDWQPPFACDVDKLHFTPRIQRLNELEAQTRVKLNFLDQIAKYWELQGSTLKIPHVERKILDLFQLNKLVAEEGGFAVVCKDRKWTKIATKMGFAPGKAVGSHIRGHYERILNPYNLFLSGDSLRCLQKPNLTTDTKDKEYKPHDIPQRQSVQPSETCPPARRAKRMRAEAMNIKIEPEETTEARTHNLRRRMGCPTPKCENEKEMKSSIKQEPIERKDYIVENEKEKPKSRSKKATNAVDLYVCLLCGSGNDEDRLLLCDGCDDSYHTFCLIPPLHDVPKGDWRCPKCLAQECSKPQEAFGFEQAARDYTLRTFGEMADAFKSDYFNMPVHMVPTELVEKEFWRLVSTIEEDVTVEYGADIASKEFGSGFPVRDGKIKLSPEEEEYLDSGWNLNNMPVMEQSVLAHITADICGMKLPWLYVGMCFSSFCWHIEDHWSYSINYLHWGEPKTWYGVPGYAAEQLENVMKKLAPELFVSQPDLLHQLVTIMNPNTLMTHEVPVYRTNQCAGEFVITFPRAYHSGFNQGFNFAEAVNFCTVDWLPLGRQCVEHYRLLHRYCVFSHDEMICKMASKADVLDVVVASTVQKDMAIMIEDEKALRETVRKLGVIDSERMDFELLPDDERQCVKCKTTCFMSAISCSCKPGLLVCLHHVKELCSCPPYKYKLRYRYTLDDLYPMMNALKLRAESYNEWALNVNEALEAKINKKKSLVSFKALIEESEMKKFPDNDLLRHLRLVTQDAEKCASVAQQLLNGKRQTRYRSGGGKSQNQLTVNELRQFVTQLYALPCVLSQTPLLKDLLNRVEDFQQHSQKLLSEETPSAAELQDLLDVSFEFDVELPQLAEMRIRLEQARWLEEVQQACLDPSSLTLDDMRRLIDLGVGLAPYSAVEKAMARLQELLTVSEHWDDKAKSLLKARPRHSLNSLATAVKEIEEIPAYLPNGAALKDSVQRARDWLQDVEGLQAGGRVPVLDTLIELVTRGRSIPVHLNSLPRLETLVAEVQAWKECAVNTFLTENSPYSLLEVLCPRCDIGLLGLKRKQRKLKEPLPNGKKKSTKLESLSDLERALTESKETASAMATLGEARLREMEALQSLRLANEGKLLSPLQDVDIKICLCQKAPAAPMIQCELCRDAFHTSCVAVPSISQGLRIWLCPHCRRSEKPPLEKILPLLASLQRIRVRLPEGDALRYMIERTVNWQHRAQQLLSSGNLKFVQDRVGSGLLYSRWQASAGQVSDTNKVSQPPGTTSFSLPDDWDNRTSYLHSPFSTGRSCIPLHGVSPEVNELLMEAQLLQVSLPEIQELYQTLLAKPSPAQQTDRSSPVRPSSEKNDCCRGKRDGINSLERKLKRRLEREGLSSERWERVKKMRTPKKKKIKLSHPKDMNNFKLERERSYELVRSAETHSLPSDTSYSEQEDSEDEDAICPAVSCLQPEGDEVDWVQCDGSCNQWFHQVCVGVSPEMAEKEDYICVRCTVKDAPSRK
Compound,Potency,"activity change, negative = inhibition"
Cc1cc(C(=O)NC(C)CCc2ccccc2)c2cccc(C)c2n1 (stereo unspecified),"inconclusive: 25.1 µM [inhibitor, partial curve, poor fit]",–
O=C1COCCN1c1cc(-c2cccc(F)c2)cn2cncc12,active: 35.5 µM,–
CC(=O)NC(Nc1cccc(C(F)(F)F)c1)C(Cl)(Cl)Cl (stereo unspecified),inactive,–
COc1ccccc1N1CCN(CC(O)COc2cc(C)cc(C)c2)CC1 (stereo unspecified),"inconclusive: 14.1 µM [inhibitor, partial curve, poor fit]",–
O=C(CSc1nc2ccccc2c(=O)n1-c1ccccc1Cl)NCC1CCCO1 (stereo unspecified),inactive,–
Cc1cc(C)c(NC(=O)Cc2cccs2)c(Cl)c1,inactive,–
COc1ccc2cc(C(=O)NCC3(N(C)C)CCCCCC3)[nH]c2c1,"inconclusive: 31.6 µM [inhibitor, single point]",–
CN1CCOc2c(C(=O)NCc3cccnc3)cc(-c3ccccc3F)cc21,active: 25.1 µM,–
CC(C)(C)C(=O)N1CCN(CCNc2cc(=O)oc3ccccc23)CC1,inactive,–
COCCCNC(=O)c1c(C)noc1-c1cc(OC)cc(OC)c1,inactive,–
COc1cccc(NC(=O)c2cnc3c(c2)N(Cc2ccccc2)CCC3)c1,active: 31.6 µM,–
CCCCS(=O)(=O)N1CCc2n[nH]c(=O)n2CC1,active: 20 µM,–
CSc1ccc(-c2nc3cnccn3c2NC2CCCCC2)cc1,"inconclusive: 2 µM [inhibitor, full curve, poor fit]",–
COc1ccc(-c2ccc3c(c2)C(=O)N2CCN(C(=O)CC(C)(C)C)C[C@@H]2C(=O)N3)c(OC)c1,"inconclusive: 28.2 µM [inhibitor, partial curve]",–
Cc1ccc(C(=O)OCC(=O)Nc2cccc(F)c2)cc1C,"inconclusive: 39.8 µM [inhibitor, single point]",–
COc1ccc(C2Cn3cnc(-c4nc(-c5ccc(SC)cc5)no4)c3CO2)cc1 (stereo unspecified),"inconclusive: 11.2 µM [inhibitor, partial curve]",–
COc1ccc(C(C)(C)C)cc1NC(=O)c1ccc2c(c1)NC(=O)CS2,"inconclusive: 28.2 µM [inhibitor, partial curve, poor fit]",–
O=C(c1ccoc1)N1CCC(O)(c2ccccc2)[C@H](N2CCCC2)C1 (stereo partly specified),"inconclusive: 11.2 µM [inhibitor, partial curve]",–
Cn1c(=O)[nH]c(=O)c2c1nc(NCCc1ccccc1)n2CC(=O)c1ccccc1,inactive,–
COc1ccc(C2CCCN2Cc2cc(=O)oc3c(C)c(C)ccc23)cc1 (stereo unspecified),"inconclusive: 28.2 µM [inhibitor, partial curve, poor fit]",–
CCc1cc(=O)oc2c(C)c(OCC(=O)NC3CC(C)(C)NC(C)(C)C3)ccc12,"inconclusive: 22.4 µM [inhibitor, partial curve, poor fit]",–
OC1(c2cccnc2)CCN(Cc2ccc(-n3ccnc3)cc2)CC1,"inconclusive: 31.6 µM [inhibitor, partial curve, poor fit]",–
CCn1c(=O)c2cc(C(=O)NCCCN3CCC(C)CC3)sc2c2ccccc21,"inconclusive: 28.2 µM [inhibitor, partial curve, poor fit]",–
COc1cccc(-c2nn(-c3ccccc3)c(OC(C)=O)c2-c2ccc(NC(=O)c3ccco3)cc2)c1,"inconclusive: 35.5 µM [inhibitor, single point]",–

Compound,Potency,"activity change, negative = inhibition"
COc1cc(/C=C(/C#N)c2nc3ccccc3[nH]2)cc(OC)c1,"inconclusive: 14.1 µM [inhibitor, partial curve, poor fit]",–
O=C(CSc1nnc(Nc2ccccc2)s1)c1ccc(Cl)s1,inactive,–
Cc1cc(C(=O)NCCCN2CCCCCC2=O)c2ccc(F)cc2n1,inactive,–
CN1c2cc(C(=O)NCc3ccccc3C(F)(F)F)ccc2C(=O)N2CCCCC21 (stereo unspecified),"inconclusive: 20 µM [inhibitor, partial curve, poor fit]",–
O=C(CCc1ncc(-c2ccc(F)cc2)o1)NCc1ccc(Cl)cc1,inactive,–
COc1ccc(-c2onc(C)c2C)cc1S(=O)(=O)NCC1CCN(Cc2cc(C)ccc2C)CC1,"inconclusive: 28.2 µM [inhibitor, single point]",–
CCc1c(C)sc(NC(=O)CCl)c1C#N,inactive,–
O=C(O)c1cnc(-c2ccccc2)nc1,inactive,–
N#Cc1nc(-c2ccc(Cl)cc2)oc1NCc1ccc(F)cc1,"inconclusive: 28.2 µM [inhibitor, partial curve, poor fit]",–
O=C(Oc1ccc(Cl)cc1)c1cc(-c2ccc3c(c2)OCCO3)on1,–,inconclusive: -32.1% [inhibitor]
Cc1ccc(NC(=O)NCc2c(C)nn(C)c2C)cc1C,inactive,–
C/C(Cc1ccccc1)=N\NC(=O)CNC(=O)c1ccc(Cl)cc1,"inconclusive: 22.4 µM [inhibitor, single point]",–
CCOCCOC(=O)COc1ccc2c(=O)c(Oc3cc(C)c(Cl)c(C)c3)coc2c1,inactive,–
Cc1cccc(CNC(=O)C2CCCCC(=O)N2)c1 (stereo unspecified),inactive,–
CN(Cc1ccccc1)C(=O)C1CC(=O)N(c2n[nH]c3cccc(F)c23)C1 (stereo unspecified),"inconclusive: 25.1 µM [inhibitor, partial curve, poor fit]",–
COc1ccc2nc(C)cc(Nc3ccc(Cl)c(Cl)c3)c2c1,"inconclusive: 39.8 µM [inhibitor, single point]",–
CC(=O)c1ccc(NC(=O)N[C@H]2CO[C@H]3[C@@H]2OC[C@@H]3Nc2nccc(-c3cccs3)n2)cc1,"inconclusive: 20 µM [inhibitor, single point]",–
CCC(C)[C@H](NC(=O)OC(C)(C)C)c1nnc(SC)o1 (stereo partly specified),inactive,–
CCOC(=O)C(O)(c1ccc(N(CC)C(=O)Nc2ccc(Cl)cc2)cc1)C(F)(F)F (stereo unspecified),inactive,–
O=C(NCc1ccc(OC(F)(F)F)cc1)C1CCN(S(=O)(=O)/C=C/c2ccccc2)CC1,inactive,–
O=C(COC(=O)C(Cc1ccccc1)N1C(=O)C2C3C=CC(C4CC34)C2C1=O)c1ccc(Oc2c(Cl)cccc2[N+](=O)[O-])cc1 (stereo unspecified),inactive,–
COc1ccccc1CCC(=O)N1CCCN(c2cc(-c3ccc(Cl)cc3)[nH]n2)CC1,"inconclusive: 17.8 µM [inhibitor, partial curve, poor fit]",–
COc1ccc(Nc2ncnc3c2cnn3-c2ccc(C)cc2)cc1Cl,"inconclusive: 35.5 µM [inhibitor, partial curve, poor fit]",–
COc1c(C)cccc1C(=O)N1CCOC(c2ccc(Cl)c(Cl)c2)C1 (stereo unspecified),inactive,–

Compound,Potency,"activity change, negative = inhibition"
COc1cc(NC(=O)c2ccc(-c3ncn[nH]3)cc2)ccc1NC(=O)C(C)(C)C,inactive,–
CCCCCCOc1ccc(C(=O)O)cc1Br,inactive,–
Cc1ccc2nc(-c3cccc(NC(=O)c4cccc5ccccc45)c3)oc2c1,"inconclusive: 7.08 µM [inhibitor, partial curve, poor fit]",–
Cc1c(-c2ccccc2)cc(-c2ccccc2)nc1-c1ccccc1,inactive,–
COc1cccc(CNS(=O)(=O)c2ccc3c(c2)OCC(C(=O)N2CCCCC2)O3)c1 (stereo unspecified),inactive,–
CNC(=O)NC(=O)C(C)Sc1ccccc1Cl (stereo unspecified),inactive,–
CS(=O)(=O)c1ccc(CN2CCC[C@H]2c2nc(-c3ccnc(N4CCOCC4)c3)no2)cc1,active: 25.1 µM,–
COc1ccc(C(=O)N2CCCC(c3noc(COc4ccccc4F)n3)C2)cc1OC (stereo unspecified),inactive,–
O=C(/C=C/c1ccccc1Cl)OCC(=O)c1ccc(C2CCCCC2)cc1,inactive,–
Cc1cc(C)cc(-n2c(SCC(N)=O)nc3c([nH]c4ccccc43)c2=O)c1,"inconclusive: 35.5 µM [inhibitor, partial curve, poor fit]",–
CC1=C[C@@H](CN2CCN(c3ncccn3)CC2)[C@H](C(C)C)C[C@H]1Cc1nnc(Cc2c[nH]c3ccccc23)o1,"inconclusive: 17.8 µM [inhibitor, partial curve]",–
COCCc1noc(-c2ccccc2OC2CN(C(=O)CC3CCCC3)C2)n1,"inconclusive: 15.8 µM [inhibitor, partial curve]",–
COCc1cc(=O)n(CC(=O)Nc2cccc(Br)c2)c(N2CCOCC2)n1,active: 28.2 µM,–
CCOC(=O)C(C)Oc1cccc2c(=O)n(CC(=O)NCCc3ccccc3)ccc12 (stereo unspecified),"inconclusive: 39.8 µM [inhibitor, single point]",–
Cc1ccc(OCc2ccc(-c3nc(C#N)c(NCc4ccccc4Cl)o3)o2)cc1,"inconclusive: 31.6 µM [inhibitor, partial curve, poor fit]",–
CCCCc1cc(C[C@H]2CNCC[C@H]2CC(=O)Nc2nccs2)no1,"inconclusive: 31.6 µM [inhibitor, single point]",–
CN1c2ccc(Cl)cc2-c2nc(SCC(=O)NCc3ccccc3)ncc2S1(=O)=O,"inconclusive: 1.12 µM [inhibitor, full curve, poor fit]",–
O=C1NCCN2CC3(CCN(C(=O)NCCc4ccccc4)CC3)CC12 (stereo unspecified),"inconclusive: 20 µM [inhibitor, partial curve, poor fit]",–
CN(CCc1ccncc1)C(=O)CCc1ccnc(N2CCOCC2)c1,"inconclusive: 28.2 µM [inhibitor, partial curve, poor fit]",–
COc1ccc(OC)c(CN2CCC3OCCN(Cc4ccccc4F)C(=O)C3C2)c1 (stereo unspecified),inactive,–
COCCNC(=O)[C@@H]1C[C@H](Oc2ccccc2)CN1C(=O)c1cc2ccc(OC)cc2[nH]1,"inconclusive: 22.4 µM [inhibitor, single point]",–
COC(=O)C(CC(C)C)NC(=O)C(Cc1ccccc1)NC(=O)OC(C)(C)C (stereo unspecified),inactive,–
COc1ccccc1Nc1nn2c(=O)c3ccc(C(=O)NCCC4=CCCCC4)cc3nc2s1,"inconclusive: 15.8 µM [inhibitor, partial curve, poor fit]",–
